Consider one substance from publication PMC9444247.

By UniProt entry, the sequences of proteins in these tests, tags left out.
UniProt Q3SXY8: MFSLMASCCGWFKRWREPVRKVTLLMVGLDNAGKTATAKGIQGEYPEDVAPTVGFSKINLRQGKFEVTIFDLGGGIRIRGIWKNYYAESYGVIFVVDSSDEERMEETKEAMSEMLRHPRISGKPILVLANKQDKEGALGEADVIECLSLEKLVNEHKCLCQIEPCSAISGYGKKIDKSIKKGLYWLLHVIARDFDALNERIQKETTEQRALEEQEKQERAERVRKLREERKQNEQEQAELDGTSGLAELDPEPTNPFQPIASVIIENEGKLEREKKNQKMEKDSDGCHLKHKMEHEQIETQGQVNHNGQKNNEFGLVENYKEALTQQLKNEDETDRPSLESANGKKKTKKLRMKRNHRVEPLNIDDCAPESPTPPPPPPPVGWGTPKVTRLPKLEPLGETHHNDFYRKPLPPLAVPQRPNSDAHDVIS

Positions count from the first letter of the chain named. No constants are given. Whether binding was seen depends on the method and setting. Binding seen in cells or lysates may run through a third protein. Some binding calls cover weakened binding; strength is not graded here. Tags and fused reporters may be left off the sequences shown.

Holding throughout (experiment): co-IP; EGFP fusion (bait) expressed in HEK293T with the co-transfected or endogenous partner; lysis in 50 mM Tris-HCl pH 7.5, 150 mM NaCl, 1% Igepal CA-630; EGFP fusions immunoprecipitated with GFP-Trap magnetic agarose beads for 2 hr or overnight at 4 °C; Western blot
For orientation: Immunoblotting shows a protein as a band on a membrane.

In test [1] the target is T1, EGFP-INPP5E (FDR609AAA) (human) (UniProt Q9NRR6).
T1 sequence (chain, CaaX box cysteine C641 farnesylated in cells, as the paper says of INPP5E): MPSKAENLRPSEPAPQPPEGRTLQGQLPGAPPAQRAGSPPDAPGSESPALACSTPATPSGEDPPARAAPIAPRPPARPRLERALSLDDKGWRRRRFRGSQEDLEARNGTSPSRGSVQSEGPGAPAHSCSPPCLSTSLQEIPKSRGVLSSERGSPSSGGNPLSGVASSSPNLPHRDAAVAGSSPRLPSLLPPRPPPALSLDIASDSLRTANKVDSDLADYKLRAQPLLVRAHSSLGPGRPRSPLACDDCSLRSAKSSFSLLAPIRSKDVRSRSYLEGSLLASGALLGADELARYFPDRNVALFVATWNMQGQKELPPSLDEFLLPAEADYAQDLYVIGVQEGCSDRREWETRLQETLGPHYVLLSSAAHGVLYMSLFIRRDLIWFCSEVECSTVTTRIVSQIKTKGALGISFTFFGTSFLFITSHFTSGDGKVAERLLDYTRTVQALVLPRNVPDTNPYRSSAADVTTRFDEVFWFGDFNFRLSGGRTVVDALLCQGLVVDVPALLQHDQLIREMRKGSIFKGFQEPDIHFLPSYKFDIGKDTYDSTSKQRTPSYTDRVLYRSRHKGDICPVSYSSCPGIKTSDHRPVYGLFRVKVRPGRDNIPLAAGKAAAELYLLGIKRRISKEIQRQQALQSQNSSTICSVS

Test [2] concerns the target T2, EGFP-INPP5E (251-644) (human) (UniProt Q9NRR6).
T2 sequence (chain, CaaX box cysteine C641 farnesylated in cells, as the paper says of INPP5E): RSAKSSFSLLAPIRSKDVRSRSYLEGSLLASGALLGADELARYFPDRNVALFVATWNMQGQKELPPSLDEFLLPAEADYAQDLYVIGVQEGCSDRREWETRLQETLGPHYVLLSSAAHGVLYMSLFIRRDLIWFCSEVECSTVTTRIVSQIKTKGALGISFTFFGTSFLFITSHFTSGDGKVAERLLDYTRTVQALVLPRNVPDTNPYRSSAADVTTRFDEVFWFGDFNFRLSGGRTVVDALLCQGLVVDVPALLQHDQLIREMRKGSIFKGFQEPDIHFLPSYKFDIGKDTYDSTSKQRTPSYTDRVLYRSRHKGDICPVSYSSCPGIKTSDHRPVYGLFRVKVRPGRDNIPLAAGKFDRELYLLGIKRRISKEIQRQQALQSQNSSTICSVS

Test [3] concerns the target T3, EGFP-INPP5E (wild type) (human) (UniProt Q9NRR6).
T3 sequence (chain, CaaX box cysteine C641 farnesylated in cells, as the paper says of INPP5E): T1 sequence (chain, CaaX box cysteine C641 farnesylated in cells, as the paper says of INPP5E) with A609F, A610D, A611R

The target in test [4] is T4, EGFP-INPP5E (Δ251–273+C641S) (human) (UniProt Q9NRR6).
T4 sequence: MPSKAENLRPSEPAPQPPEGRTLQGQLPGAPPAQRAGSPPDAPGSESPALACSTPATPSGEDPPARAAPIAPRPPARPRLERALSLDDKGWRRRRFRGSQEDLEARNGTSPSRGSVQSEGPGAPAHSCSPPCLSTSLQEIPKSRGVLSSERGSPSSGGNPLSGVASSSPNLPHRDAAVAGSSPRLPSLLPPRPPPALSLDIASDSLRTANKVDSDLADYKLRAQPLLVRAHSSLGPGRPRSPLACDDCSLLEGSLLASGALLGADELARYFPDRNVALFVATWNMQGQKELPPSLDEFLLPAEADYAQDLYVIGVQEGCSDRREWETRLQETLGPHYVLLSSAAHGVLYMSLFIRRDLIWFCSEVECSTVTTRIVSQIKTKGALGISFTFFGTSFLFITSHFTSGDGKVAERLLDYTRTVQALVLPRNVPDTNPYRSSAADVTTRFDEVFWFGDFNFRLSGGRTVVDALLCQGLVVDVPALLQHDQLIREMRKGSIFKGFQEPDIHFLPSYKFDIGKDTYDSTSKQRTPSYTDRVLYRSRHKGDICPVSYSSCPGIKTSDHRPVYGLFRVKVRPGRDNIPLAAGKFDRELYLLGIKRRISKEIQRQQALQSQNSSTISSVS

Test [5] concerns the target T5, EGFP-INPP5E (Δ251–273) (human) (UniProt Q9NRR6).
T5 sequence (chain, CaaX box cysteine C641 farnesylated in cells, as the paper says of INPP5E): T4 sequence with S618C

Test [6] addresses T6, EGFP-INPP5E (W383A) (human) (UniProt Q9NRR6).
T6 sequence (chain, CaaX box cysteine C641 farnesylated in cells, as the paper says of INPP5E): T1 sequence (chain, CaaX box cysteine C641 farnesylated in cells, as the paper says of INPP5E) with W383A, A609F, A610D, A611R

Test [7] concerns the target T7, EGFP-INPP5E (C641S) (human) (UniProt Q9NRR6).
T7 sequence: T1 sequence (chain, CaaX box cysteine C641 farnesylated in cells, as the paper says of INPP5E) with A609F, A610D, A611R, C641S

For test [8], the target named is T8, EGFP-INPP5E (1-283) (human) (UniProt Q9NRR6).
T8 sequence: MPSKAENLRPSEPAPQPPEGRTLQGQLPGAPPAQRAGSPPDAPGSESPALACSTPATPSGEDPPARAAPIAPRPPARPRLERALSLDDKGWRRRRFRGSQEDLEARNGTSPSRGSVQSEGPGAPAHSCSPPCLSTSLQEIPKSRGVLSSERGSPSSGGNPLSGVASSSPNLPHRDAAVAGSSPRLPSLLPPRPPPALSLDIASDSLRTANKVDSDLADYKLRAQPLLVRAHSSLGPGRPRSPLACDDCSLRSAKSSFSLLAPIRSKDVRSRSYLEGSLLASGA

Regarding “endogenous ARL13B (from UniProt Q3SXY8 1-428)”, the binding result was “binds” in test [1]; “binds” in test [2]; “binds” in test [3]; “binds weakly” in test [4]; “binds” in test [5]; “binds” in test [6]. Moreover, the binding result in test [7] is given as “binds weakly”; in test [8], “no binding”.
